Measurements: PubChem BioAssay AID504937 (National Center for Advancing Translational Sciences (NCATS), 2011)
Among all 340,000 compounds or so, about 20 (0.006%) were called active. Inconclusive results, whose numbers are uncertain, are shown with a selection of clear calls. Calls come from the whole dose curve; as a rule, active = well fitted inhibition curve with a large enough effect; inconclusive = small, poorly fitted or top-dose-only effect; inactive = no such curve, though single readings can be large or run the other way. Potencies of inconclusive entries are doubtful fits and often do not repeat.

Each compound was assayed against Sphingomyelin phosphodiesterase (Homo sapiens) (UniProt P17405) (assay: Inhibitors of Secretory Acid Sphingomyelinase (S-ASM): qHTS). Details: placental ASM, HMU-PC fluorogenic substrate (series up to 57.5 µM), 60 min; activity change, negative = inhibition: at the top concentration.
Procedure, shortened: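 qHTS format. ASM enzyme prepared from human placenta hydrolyses the fluorogenic substrate HMU-PC0 (9 uM final) over 60 min at 37 °C after a 10 min compound preincubation.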
Potency is the fitted concentration of half-maximal effect; tags give direction and shape of the fitted curve.

Chain of UniProt P17405 (P17405 whole entry, looked up): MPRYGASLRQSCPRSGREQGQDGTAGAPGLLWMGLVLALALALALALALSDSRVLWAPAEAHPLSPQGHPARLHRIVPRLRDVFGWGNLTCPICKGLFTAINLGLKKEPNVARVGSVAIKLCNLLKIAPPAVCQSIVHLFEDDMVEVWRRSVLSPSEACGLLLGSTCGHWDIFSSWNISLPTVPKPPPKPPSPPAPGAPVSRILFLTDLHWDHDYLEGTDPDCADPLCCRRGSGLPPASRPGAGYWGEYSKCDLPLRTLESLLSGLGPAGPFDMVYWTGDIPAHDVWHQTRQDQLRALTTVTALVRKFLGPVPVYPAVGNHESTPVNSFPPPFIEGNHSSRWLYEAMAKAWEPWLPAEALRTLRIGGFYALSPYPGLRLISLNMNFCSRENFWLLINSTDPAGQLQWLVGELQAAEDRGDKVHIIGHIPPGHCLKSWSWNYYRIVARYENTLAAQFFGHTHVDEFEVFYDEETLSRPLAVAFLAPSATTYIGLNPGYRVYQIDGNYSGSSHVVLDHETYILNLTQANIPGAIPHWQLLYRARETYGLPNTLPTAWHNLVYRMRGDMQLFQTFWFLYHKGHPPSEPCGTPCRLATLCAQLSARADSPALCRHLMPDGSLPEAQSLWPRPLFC

Row | Structure (SMILES) | Potency | activity change, negative = inhibition
1 | CCCc1cc(-c2nc(-c3ccc(C)cc3)cs2)ccn1 | inconclusive: 100 µM [inhibitor, partial curve, poor fit] | 
2 | COc1ccc(NC(=O)c2cc([N+](=O)[O-])ccc2N2CCCC2)cc1 |  | inactive: -7.88%
3 | Cc1ccc2nc(/C(C#N)=C/c3ccc(O)c(O)c3)[nH]c2c1 | inconclusive: 178 µM [inhibitor, partial curve, poor fit] | 
4 | COc1ccc(C(C)=O)cc1COC(=O)c1c(C)noc1C |  | inactive: -1.58%
5 | Cn1cccc1/C=C1\CC(C(C)(C)C)C/C(=C\c2cccn2C)C1=O (configuration not stated) | inconclusive: 89.1 µM [inhibitor, single point] | 
6 | Cn1c(CNc2nc(-c3ccccc3)cs2)nnc1SCC(=O)N1CCc2ccccc21 | inconclusive: 398 µM [inhibitor, partial curve, poor fit] | 
7 | N#C/C(=C/c1ccc(N2CCCCC2)o1)C(=O)NCCc1c[nH]c2ccccc12 | inconclusive: 89.1 µM [inhibitor, single point] | 
8 | CCc1ccc(-c2csc(NC(=O)C3=COCCO3)n2)cc1 | inconclusive: 100 µM [inhibitor, single point] | 
9 | Cc1nnc(-c2ccccc2)c(=O)n1/N=C/c1c(O)ccc2ccccc12 | inconclusive: 89.1 µM [inhibitor, single point] | 
10 | C[C@@H]1CN([C@H](C)CO)C(=O)c2cccc(NC(=O)NC3CCCCC3)c2O[C@@H]1CN(C)C(=O)Nc1ccc(C(F)(F)F)cc1 | inconclusive: 100 µM [inhibitor, partial curve] | 
11 | OC(CNCc1ccco1)Cn1c2ccc(Br)cc2c2cc(Br)ccc21 (configuration not stated) | inconclusive: 79.4 µM [inhibitor, single point] | 
12 | Cc1ccc(N2CC(C(=O)Nc3nc4ccc(S(C)(=O)=O)cc4s3)CC2=O)cc1C (configuration not stated) | inconclusive: 79.4 µM [inhibitor, single point] | 
13 | O=C(Nc1cccc(-c2cnc3ccccc3n2)c1)c1cccc(NC(=O)c2ccco2)c1 | inconclusive: 398 µM [inhibitor, partial curve, poor fit] | 
14 | CCCC1C(=O)N(c2ccccc2)C1c1ccccc1 (configuration not stated) | inconclusive: 447 µM [inhibitor, partial curve, poor fit] | 
15 | Cc1ccc(NC(=O)CNC(=O)c2cccs2)cc1S(=O)(=O)Nc1ccc(Cl)cc1 | inconclusive: 100 µM [inhibitor, partial curve, poor fit] | 
16 | O=C(Nc1ccc(Nc2ccccc2)cc1)c1ccccc1 |  | inactive: -2.23%
17 | CCOc1ccc(CNC(=O)CS(=O)(=O)Cc2nc(-c3ccc(OC)cc3)oc2C)cc1 | inconclusive: 63.1 µM [inhibitor, partial curve, poor fit] | 
18 | Cc1nnc(NCc2cccc(Cl)c2)c2ccccc12 |  | inactive: 9.85%
19 | CCC(C)n1nccc1NC(=O)C(C)OC(=O)c1cc2ccccc2[nH]1 (configuration not stated) |  | inactive: -14.1%
20 | Cc1ccc(C(=O)Nc2sc3c(c2C#N)CCCCC3)cc1C |  | inactive: 2.44%
21 | COc1ccc(N2CCN(Cc3cc(=O)oc4ccc5ccccc5c34)CC2)cc1 | inconclusive: 79.4 µM [inhibitor, single point] | 

Row | Structure (SMILES) | Potency | activity change, negative = inhibition
22 | COc1ccc(CCN(C(=O)C(F)(F)F)C(C(=O)NC2CCCCC2)c2ccc(C)s2)cc1 (configuration not stated) |  | inactive: -3.44%
23 | O=C1C(Nc2ccc(O)cc2)=C/C(=N/S(=O)(=O)c2cccs2)c2ccccc21 | inconclusive: 89.1 µM [inhibitor, single point] | 
24 | CCOC(=O)c1ccc(NC(=O)CNNC(=O)COc2ccccc2C)cc1 | inconclusive: 355 µM [inhibitor, partial curve, poor fit] | 
25 | Cc1cccc(C(=O)N2CCN(c3ccc([N+](=O)[O-])c(N4CCOCC4)c3)CC2)c1 | inconclusive: 112 µM [inhibitor, partial curve, poor fit] | 
26 | COc1ccc(CNC(=O)c2c(C)oc3c2C(=O)c2ccccc2C3=O)cc1 | inconclusive: 1580 µM [inhibitor, partial curve, poor fit] | 
27 | Cc1cc(F)ccc1NCc1cc2c(cc1[N+](=O)[O-])OCO2 | inconclusive: 89.1 µM [inhibitor, single point] | 
28 | COc1cccc(NC(=O)CSc2nc3n[nH]c(C)c3c(=N)n2-c2cccc(OC)c2)c1 | inconclusive: 100 µM [inhibitor, partial curve, poor fit] | 
29 | COc1ccc(-c2nnc(SCC(=O)Nc3sc4c(c3C#N)CCC4)n2CC2CCCO2)cc1 (configuration not stated) | inconclusive: 316 µM [inhibitor, partial curve, poor fit] | 
30 | O=C(NCSc1ccccc1)c1ccccc1 |  | inactive: 7.76%
31 | CN(c1ccc([N+](=O)[O-])cc1C(=O)Nc1ccccc1)C1CCCCC1 | inconclusive: 112 µM [inhibitor, partial curve, poor fit] | 
32 | C=CCN1C(=O)/C(=C2\SC(N3CCOCC3)=NC2=O)c2cc(Br)ccc21 | inconclusive: 126 µM [inhibitor, partial curve, poor fit] | 
33 | CC(=O)Nc1ccc(S(=O)(=O)N(CCCN2CCOCC2)Cc2cccs2)cc1 |  | inactive: 1.03%
34 | Cc1c(CNCCc2ccc(Cl)cc2)c(C(=O)O)c(C)n1Cc1ccccc1 | inconclusive: 355 µM [inhibitor, partial curve, poor fit] | 
35 | O=C(N=Nc1c(O)n(Cc2ccccc2)c2ccccc12)c1ccc(O)cc1 | inconclusive: 79.4 µM [inhibitor, single point] | 
36 | COc1ccc(-c2nnc3sc(COc4ccccc4)nn23)cc1 | inconclusive: 100 µM [inhibitor, partial curve, poor fit] | 
37 | CC1C=CC(C)C(C(=O)O)C1C(=O)O (configuration not stated) |  | inactive: 6.14%
38 | Cc1[nH]n(-c2ccccc2)c(=O)c1C=Nc1ccc(S(=O)(=O)N(C)C)cc1 | inconclusive: 316 µM [inhibitor, partial curve, poor fit] | 
39 | COc1ccc(N2CCN(Cc3nc4c(c(=O)n(C)c(=O)n4C)n3Cc3cccc(C)c3)CC2)cc1 | inconclusive: 112 µM [inhibitor, partial curve, poor fit] | 
40 | C[C@H](NC(=O)c1nc[nH]c1C(=O)NCc1ccc(CNC(=O)OC(C)(C)C)cc1)C(=O)OC(C)(C)C |  | inactive: -1.18%
41 | COc1ccc(N(CC(=O)Nc2nc3ccc(C)cc3s2)S(=O)(=O)c2c(C)nn(C)c2C)cc1 | inconclusive: 112 µM [inhibitor, partial curve, poor fit] | 
42 | COc1ccc(NC(=O)C(c2ccccc2)N2CCN(c3ccccn3)CC2)cc1Cl (configuration not stated) |  | inactive: -6.68%

Row | Structure (SMILES) | Potency | activity change, negative = inhibition
43 | Cn1c(=O)c(C(=O)NNC(=O)c2cccc(Cl)c2)c(O)c2ccccc21 |  | inactive: 0.635%
44 | COc1cc(/C=N/NC(=O)c2cc(O)cc(O)c2)ccc1OC(=O)c1ccccc1 | inconclusive: 56.2 µM [inhibitor, partial curve, poor fit] | 
45 | CC(C)CC(C(=O)Nc1oc(-c2ccco2)c(-c2ccco2)c1C#N)N1C(=O)c2ccccc2C1=O (configuration not stated) | inconclusive: 501 µM [inhibitor, partial curve, poor fit] | 
46 | Cc1c(C(=O)Nc2cccc(Cl)c2)oc2ccc(S(=O)(=O)N3CCC4(CC3)OCCO4)cc12 | inconclusive: 44.7 µM [inhibitor, partial curve, poor fit] | 
47 | Cc1cc(C)cc(OCCNC(=O)c2cc(S(=O)(=O)N3CCOCC3)ccc2F)c1 |  | inactive: -0.0197%
48 | CCCCCCCCCS(=O)(=O)N/N=C/c1cccc([N+](=O)[O-])c1 | inconclusive: 70.8 µM [inhibitor, partial curve] | 
49 | O=[N+]([O-])c1cc(C(F)(F)F)ccc1NCCCCNS(=O)(=O)c1ccc2ccccc2c1 | inconclusive: 178 µM [inhibitor, partial curve, poor fit] | 
50 | O=S(=O)(Nc1ccc(N=Nc2ccc(O)c3ccccc23)cc1)c1ccccc1 | inconclusive: 126 µM [inhibitor, single point] | 
51 | CC(=O)c1ccc(NC(=O)CCNS(=O)(=O)c2ccccc2F)cc1 |  | inactive: -1.02%
52 | Oc1ccc(/C=N/Nc2nc(N3CCCCCC3)nc(N3CCCCCC3)n2)c(O)c1 | inconclusive: 316 µM [inhibitor, partial curve, poor fit] | 
53 | CCCCCCCCSc1nnc(CSc2nc3nc(C)cc(C)n3n2)o1 | inconclusive: 100 µM [inhibitor, partial curve, poor fit] | 
54 | O=C1c2ccccc2C(=O)N1CCCCN(C(=O)c1ccc(Cl)s1)c1ccc(Cl)cc1 |  | inactive: -5.88%
55 | Cc1cccc(C(=O)Nc2nnc(S(=O)(=O)N(C)Cc3ccco3)s2)c1 |  | inactive: -0.154%
56 | Cc1ccc(CSc2nc3ccsc3c(=O)n2Cc2ccccn2)cc1 |  | inactive: -24.7%
57 | CC(=O)C1=NN(c2ccccc2)C(c2cccs2)N1c1ccc(N(C)C)cc1 (configuration not stated) | inconclusive: 126 µM [inhibitor, partial curve, poor fit] | 
58 | COc1ccc(/C=N/NC(=O)c2[nH]c3ccc(C)cc3c2-c2ccccc2)c(C(=O)O)c1OC | inconclusive: 44.7 µM [inhibitor, partial curve, poor fit] | 
59 | O=C(NC(C(=O)N/N=C/c1cccc2ccccc12)c1n[nH]c(=O)c2ccccc12)c1ccccc1 (configuration not stated) | inconclusive: 112 µM [inhibitor, partial curve, poor fit] | 
60 | Oc1ccccc1CN1CCC(C(O)(c2ccccc2)c2ccccc2)CC1 |  | inactive: 6.32%
61 | Cc1ccc(NC(=O)CSc2nc(O)cc(=O)n2-c2ccc(C)cc2)cc1 |  | inactive: 0.841%
62 | Cc1noc(C)c1NC(=O)N(C)C[C@H]1Oc2c(NC(=O)Nc3ccc(C(F)(F)F)cc3)cccc2C(=O)N([C@H](C)CO)C[C@@H]1C | inconclusive: 2000 µM [inhibitor, partial curve, poor fit] | 
